The whole screen tested about 52,000 compounds, of which about 1,700 (3.3%) were called active. No stated cut-off is given here; in the data, active means survival mostly below about 52% (no sharp cut-off); inactive means mostly above about 56%. The list shows a part of the results.

The test deals with Wild type. The test can be described thus: growth inhibition of S. aureus wild type versus tarO mutant, primary screen, teichoic acid synthesis inhibitors, RN4220, OD600 (AID 463173). As to conditions: S. aureus RN4220 wild type/DeltatarO growth, OD600, 18 h, hits give low values, screened at 18.75 µg/mL (by protocol).
In the case of `Cc1ccccc1CSc1nc2ccsc2c(=O)n1CCC(C)C`, the survival is inactive: 74%.
The same measure for `COc1ccccc1NC(=O)c1oc2ccccc2c1NC(=O)C1CCCCC1`: inactive: 36%; for `CC1C(=O)N2CCCc3cc(S(=O)(=O)N4CCC(C(N)=O)CC4)cc1c32` (stereo unspecified): active: -3%.
In the case of `Cc1ccc2cc(CN(C(=O)c3cccc(Cl)c3)c3ccccc3)c(=O)[nH]c2c1` it was inactive: 84%.
Consider `CCCSCCCNC(=O)c1ccc2c(c1)sc1nc(-c3ccc(OCC)cc3)cn12`, for which the survival was inactive: 85%.
For the compound `COc1ccc(CCn2nnc(-c3ccc(NC(C)=O)c(Cl)c3)n2)cc1`, the survival is inactive: 107%.
Regarding `COc1cccc(CNC(=O)c2cnc(N3CCCCC3)c3ccccc23)c1`, the survival was inactive: 91%.
In the case of `COc1ccccc1Nc1nn2c(=O)c3ccc(C(=O)NCCC4=CCCCC4)cc3nc2s1` it was inactive: 77%; in that of `N#Cc1cc[n+](CC(=O)c2cccs2)cc1`, inactive: 102%.
Take `O=C(NCc1ccccc1F)C1CCN(c2nn3cc(-c4ccc(F)cc4)nc3s2)CC1`: the survival was inactive: 128%.
Turning to `CN1c2ccc(Cl)cc2-c2nc(SCC(=O)NCc3ccccc3)ncc2S1(=O)=O`, the survival is inactive: 73%.
On to `CCNC(=S)N1CCN(Cc2ccccc2)CC1`, for which the survival was inactive: 110%.
Take `Cc1ccc(OCc2ccc(-c3nc(C#N)c(NCc4ccccc4Cl)o3)o2)cc1`: the survival is inactive: 125%.
Consider `Cc1ccc(Cn2c(C(=O)O)c(CNC3CCCC3)c3ccc(C)cc32)cc1`, for which the survival is inactive: 83%.
The same measure for `COc1ccc(C)cc1NC(=O)C(Cc1ccccc1)NS(=O)(=O)c1cccs1` (stereo unspecified): inactive: 72%; for `O=C(NC1CC(=O)N(c2cccc(F)c2)C1)c1cc2ccccc2o1` (stereo unspecified): inactive: 73%; for `Cc1cc(C)cc(-n2c(SCC(N)=O)nc3c([nH]c4ccccc43)c2=O)c1`: inactive: 75%.
The same measure for `O=C(Nc1ccccc1C(F)(F)F)N1CCC(CN2CCc3ccccc3C2)CC1`: inactive: 63%; for `Cc1cc(C)nc(Nc2ccc(O)cc2)n1`: inactive: 95%; for `CCOC(=O)c1ccc(CN(Cc2ccccc2C)S(=O)(=O)c2ccc(F)c(C)c2)cc1`: inactive: 66%.
In the case of `COCCNc1oc(/C=C/c2ccc(F)cc2)nc1C#N` it was inactive: 84%.
On to `Cc1ccc2nc(-c3cccc(NC(=O)c4cccc5ccccc45)c3)oc2c1`, for which the survival was inactive: 65%.
The same measure for `CCC(=O)N1CCc2cc(Br)cc(S(=O)(=O)CCC(=O)NCc3cccc(OC)c3)c21`: inactive: 60%; for `CCCCOc1ccc(-c2nnn(C(C)(C)C(=O)O)n2)cc1`: inactive: 117%.
In the case of `COc1ccc(Nc2ncnc3c2cnn3-c2ccc(C)cc2)cc1Cl` it was inactive: 133%; in that of `Cc1ccc(-n2c(=O)c3c(cnn3C)n(CC(=O)Nc3ccccc3C)c2=O)cc1`, inactive: 73%.
Take `CCOc1ccc(-n2c(SCC(=O)NC3CCCCC3)nc3c([nH]c4ccccc43)c2=O)cc1`: the survival is inactive: 83%.
In the case of `COc1ccc(NC(=S)N(Cc2ccco2)Cc2cc3cc(C)c(C)cc3[nH]c2=O)cc1` it was inactive: 103%; in that of `Cc1ccc(CNC(=O)CCCn2c(=O)[nH]c3ccc(Br)cc3c2=O)cc1`, inactive: 103%.
With `Cc1cccc(Cn2cc(S(=O)(=O)c3cccc(C)c3)c(=O)c3cc(F)c(N4CCOCC4)cc32)c1`, the survival is inactive: 64%.
In the case of `COc1ccc2nc(C)cc(Nc3ccc(Cl)c(Cl)c3)c2c1` it was inactive: 75%.
Turning to `Cc1cc2nc3n(c2cc1C)CCCN3`, the survival is inactive: 106%.
On to `Cc1ccn(C(=O)COc2ccc(Cl)cc2)n1`, for which the survival was inactive: 107%.
The same measure for `CCCCn1c(=NC(=O)c2cc3ccccc3o2)c(C(=O)OCC)cc2c(=O)n3ccccc3nc21`: inactive: 120%; for `O=C(Cn1c(=O)oc2cc(S(=O)(=O)N3CCCCC3)ccc21)NCc1ccc(Cl)cc1`: inactive: 82%; for `COc1ccc(N2CCN(Cc3nnnn3CCc3ccccc3)CC2)cc1`: inactive: 105%.
In the case of `O=C(Oc1ccc(Cl)cc1)c1cc(-c2ccc3c(c2)OCCO3)on1` it was inactive: 108%; in that of `COc1ccc(Cn2ccnc2SCC(=O)NCc2ccco2)cc1`, inactive: 70%.
The same measure for `COc1ccc(-c2onc(C)c2C)cc1S(=O)(=O)NCC1CCN(Cc2cc(C)ccc2C)CC1`: inactive: 73%; for `Cc1cccc(N2CCN(S(=O)(=O)c3ccc4c(c3)CC(=O)N4C)CC2)c1C`: inactive: 152%.
`CCN(CC)CCNC(=O)Cn1nc(C)c2c(C)n(-c3ccccc3)nc2c1=O`: the survival was inactive: 79%.
In the case of `COC(=O)c1ccccc1NC(=O)c1ccc2nc(CCc3ccccc3)oc2c1` it was inactive: 129%.
The same measure for `CCn1c(=O)c2cc(C(=O)NCCCN3CCC(C)CC3)sc2c2ccccc21`: inactive: 82%; for `CC(C)Oc1ccc(CCN=C(N)N=C(N)N)cc1Cl`: inactive: 105%; for `COc1cccc(-c2noc(COc3ccccc3Cl)n2)c1`: inactive: 82%.
In the case of `Cc1ccc(Cl)cc1NC(=O)CSc1nc2ccccc2nc1Cc1ccccc1` it was inactive: 69%; in that of `CCOc1ccc(N2C(=O)N(Cc3ccc(C)cc3C)c3ccccc3S2(=O)=O)cc1`, inactive: 78%; in that of `COc1ccccc1N1CCN(CC(O)COc2cc(C)cc(C)c2)CC1` (stereo unspecified), inactive: 82%.
In the case of `Cc1ccc(SCCNS(C)(=O)=O)cc1`, the survival was inactive: 115%.
Consider `O=c1c2ccccc2n(Cc2cccc(F)c2)c(=O)n1Cc1ccccc1Cl`, for which the survival was inactive: 41%.
With `COc1cccc(CNC(=O)CCCN2C(=O)CSc3c2c(C)nn3-c2ccccc2)c1`, the survival is inactive: 89%.
In the case of `Cc1ccc(-c2cc(C(=O)NCCc3ccccc3)c3c(-c4ccc(C)cc4)[nH]nc3n2)cc1` it was inactive: 88%; in that of `COc1ccc(-c2ccc3c(N)c(C(=O)Nc4cc(F)ccc4C)sc3n2)cc1`, inactive: 135%.
In the case of `CCn1cc(C(=O)N2CCN(c3cc(C)ccc3C)CC2)c(=O)c2cc(S(=O)(=O)N(C)C3CCCCC3)ccc21` it was inactive: 73%; in that of `Cc1cccc(Nc2c3c(nc4nncn24)CCC3)c1`, inactive: 82%.
As to `Cc1ccc(NC(=O)CSc2nc3c([nH]c4ccccc43)c(=O)n2-c2ccccc2)c(C)c1`, the survival is inactive: 80%.
Consider `CCCCN1CCc2nc(N3CCN(c4ncccn4)CC3)ncc2C1`, for which the survival is inactive: 87%.
The same measure for `O=C(NCCc1nc2ccccc2[nH]1)c1ccc(F)cc1`: inactive: 116%.
With `CCN(c1ccccc1)S(=O)(=O)c1ccc(NC(=O)c2cc(=O)c3cc(C)c(C)cc3o2)cc1`, the survival is inactive: 84%.
Turning to `Cc1cccc(NS(=O)(=O)c2ccc3c(c2)CCN3C(=O)CCC(=O)O)c1C`, the survival was inactive: 74%.
`COc1ccc(S(=O)(=O)Nc2cc3c(cc2NCc2ccccc2)n(C)c(=O)n3C)cc1OC`: the survival was inactive: 94%.
In the case of `COc1cccc(-n2cc(C(=O)NCc3cccc(Cl)c3)c3ccccc3c2=O)c1` it was inactive: 80%; in that of `Cn1cc(-c2nnc(-c3ccccc3)o2)c2ccccc21`, inactive: 109%.
The same measure for `Cc1cc(C)n(C(C)n2nc(C)cc2C)n1`: inactive: 108%; for `COc1ccccc1N1CCN(C(=O)Cn2c(=O)nc(-c3ccccc3)c3cc(Cl)ccc32)CC1`: inactive: 73%.
The same measure for `CCOc1ccc(NC(=O)c2ccc(-c3ccccc3)s2)cc1`: inactive: 84%; for `Cc1nc2c(-c3ccc(F)cc3)c(C)nn2c(C)c1CCC(=O)NCc1ccc(Cl)cc1`: inactive: 91%.
Turning to `CCOc1ccc(C(=O)Nc2ccc3nc(SCc4ccccc4)sc3c2)cc1`, the survival was inactive: 96%.
For `Cc1cc(C)c(NC(=O)c2cc3c(=O)n4ccccc4nc3n2C)c(C)c1`, the survival is inactive: 81%.
With `Cc1cc(-c2nc3ncccc3o2)ccc1NC(=O)c1ccc(Br)cc1`, the survival is inactive: 146%.
The same measure for `Cc1ccc2c(=O)cc(CSc3nnc(-c4ccccc4)n3C)[nH]c2c1C`: inactive: 58%; for `CC(C)c1ccc(S(=O)(=O)Nc2ccc3oc4c(c3c2)C(=O)CC(C)(C)C4)cc1`: inactive: 138%; for `CCOC(=O)Cn1c(=O)n(C2CCCCC2)c2nc(-c3ccc(Cl)cc3)nc(C(N)=O)c21`: inactive: 112%.
In the case of `CC(=O)Nc1ccc(S(=O)(=O)N2CCC(Oc3ccc(-n4cnnn4)cc3)CC2)cc1` it was inactive: 118%.
The same measure for `CC1CCN(C(=O)c2cnn(-c3cccc(Cl)c3)c2C2CCN(C(=O)OC(C)(C)C)CC2)CC1`: inactive: 68%.
`CC(=O)N1CCc2c(sc3c2c(=O)n(-c2ccccc2C)c(=O)n3Cc2cccc(F)c2)C1`: the survival is inactive: 80%.
In the case of `COc1cc(OC)cc(-n2nnc(-c3nc(-c4ccccc4Cl)no3)c2N)c1` it was inactive: 99%; in that of `COCCCNC(=O)c1sc2nc(C)c(C(=O)Nc3ccc(C)cc3C)c(-c3ccc(Cl)cc3)c2c1N`, inactive: 125%.
`Cc1c(Cl)cccc1NC(=O)c1ccc(C(=O)Nc2cccc(Cl)c2C)cc1`: the survival is inactive: 79%.
With `COc1ccc(OCC(=O)NCC(c2ccc(Cl)cc2)N2CCCCC2)cc1` (stereo unspecified), the survival was inactive: 80%.
In the case of `Cc1cccc2c(=O)c(C(=O)NCc3cccs3)c[nH]c12` it was inactive: 104%; in that of `CSc1ccc(CNC(=O)c2ccccc2NC(=O)c2nsc3ccccc23)cc1`, inactive: 90%.
`CC(=O)N1c2ccccc2C(=O)C1N1CCN(c2ccccc2)CC1` (stereo unspecified): the survival is inactive: 80%.
In the case of `COc1ccc(NC(=O)c2c(-c3ccccc3)c(-c3ccccc3)nn(C)c2=O)c(OC)c1` it was inactive: 78%.
The same measure for `Cc1c(CNC(C)CCc2ccccc2)c(C(=O)O)c(C)n1Cc1ccc(F)cc1Cl` (stereo unspecified): inactive: 93%; for `O=C(Nc1ccccc1-c1nc2ccccc2s1)c1cc(Cl)cc(Cl)c1`: inactive: 72%; for `COc1ccc(CN2COc3ccc4c(oc(=O)c5ccccc54)c3C2)cc1OC`: inactive: 91%.
In the case of `Cc1ccccc1Nc1c(-c2ccc(N3CCOCC3)cc2)nc2ncccn12` it was inactive: 82%.
For the compound `COC(=O)c1scc(-c2ccccc2)c1S(=O)(=O)Nc1cccc(C)c1C`, the survival is inactive: 100%.
For the compound `CCCCOc1ccc(C(=O)N(Cc2ccc(C(C)C)cc2)C2CCS(=O)(=O)C2)cc1` (stereo unspecified), the survival is inactive: 54%.
For the compound `O=C(c1ccccc1Cl)n1nc(-c2cccnc2)nc1NCc1ccc(F)cc1`, the survival is inactive: 84%.

The values are drawn from PubChem BioAssay AID463173 (ICCB-Longwood Screening Facility, Harvard Medical School, 2010).
